From the supplement of paper PMC3334620
Whole data set: some 33,000 sequences, median “E-score (-0.5 to 0.5)” near -0.016, cut for the highest 2% near 0.32. The list shows a part of the results.

Biological target: T1, Stp1 (UniProt B3LFK1)
T1 sequence: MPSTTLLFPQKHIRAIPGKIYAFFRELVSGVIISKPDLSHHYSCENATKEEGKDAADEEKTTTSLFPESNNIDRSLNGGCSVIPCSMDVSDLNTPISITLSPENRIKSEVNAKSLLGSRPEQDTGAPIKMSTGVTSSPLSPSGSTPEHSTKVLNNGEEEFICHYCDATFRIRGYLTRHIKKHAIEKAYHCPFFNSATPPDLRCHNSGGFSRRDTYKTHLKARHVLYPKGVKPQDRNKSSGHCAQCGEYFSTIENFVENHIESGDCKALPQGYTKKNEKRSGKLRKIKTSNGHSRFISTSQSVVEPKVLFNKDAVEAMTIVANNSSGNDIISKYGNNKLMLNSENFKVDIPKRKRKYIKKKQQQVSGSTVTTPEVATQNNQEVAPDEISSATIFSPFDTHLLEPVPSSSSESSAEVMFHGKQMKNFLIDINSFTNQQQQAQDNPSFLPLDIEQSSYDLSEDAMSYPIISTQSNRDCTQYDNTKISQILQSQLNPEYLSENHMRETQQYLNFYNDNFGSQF
Assay: PBM E-score (8-mer binding enrichment) (E-score (-0.5 to 0.5)); higher = stronger / more preferred TF binding; most listed sequences are background and not binding sites
Details: protein concentration: 200 nM; construct: GST-full length
Procedure, shortened: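 Each ungapped eight-base word and its reverse complement, pooled, received an E-score from the Universal PBM Analysis Suite. Underlying scans, normalised with masliner, recorded fluorescent anti-GST bound to GST-tagged yeast transcription factors. These were applied at about 100-200 nM to universal all-10-mer Agilent arrays double-stranded by primer extension.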

| Sequence | PBM E-score |
| --- | --- |
| ATATAGGA | -0.0171 |
| CCATCACC | -0.291 |
| GCGGGGGA | -0.304 |
| ATCACTTG | -0.135 |
| GGTCGCAA | -0.119 |
| CGTATAAA | 0.319 |
| ATGTGATC | 0.117 |
| GCCTATCA | 0.073 |
| ATGTAAGC | 0.0689 |
| AGGCCTTA | -0.148 |
| CAATGACG | -0.0834 |
| TATTATCA | 0.0807 |
| GTAATCGA | 0.138 |
| TGGAAACA | -0.173 |
| GAGATTCA | -0.104 |
| AGTGGCTA | 0.08 |
| ACGAACAC | 0.138 |
| CCTAAAGA | 0.0446 |
| CACCGTAC | 0.121 |
| AAATCCTG | -0.00931 |
| GGATTTTA | -0.113 |
| CTACGTAG | 0.037 |

| Sequence | PBM E-score |
| --- | --- |
| AAGCGTCT | -0.159 |
| CATGCTTA | -0.106 |
| TCTAATCA | 0.0164 |
| AATAGACC | -0.159 |
| ACCGTAAT | -0.0371 |
| GATGTCAC | -0.183 |
| ATGAGAAC | 0.0468 |
| ATCATGAC | 0.00813 |
| ACAAGCGG | 0.203 |
| ACTATCAA | 0.0687 |
| CCAGCCGA | -0.179 |
| CGGAACTC | -0.147 |
| CTCGTTTA | 0.101 |
| CGTTTCCA | 0.159 |
| CCCTTGAC | -0.126 |
| CAACTATG | -0.0146 |
| CGATTTCA | -0.0348 |
| CAGGACTA | -0.153 |
| CGGCGTCA | 0.399 |
| CTTTTTAA | -0.0582 |
| CTCTGCAG | -0.172 |
| AAGATCTT | -0.00602 |

| Sequence | PBM E-score |
| --- | --- |
| CCCATCTC | -0.0264 |
| CGCGACAG | -0.0374 |
| CGCACAGA | 0.0304 |
| CTCCGTAA | -0.0763 |
| AAGCGGAG | -0.0617 |
| GAGGCCCA | -0.271 |
| AGCCCCTA | -0.372 |
| AAAGACAG | 0.0275 |
| CCCAGTAG | -0.184 |
| GGCATAAA | 0.314 |
| GTAGGAGA | -0.262 |
| AGAGGGCG | 0.307 |
| GACCTGAC | -0.166 |
| ACAGTGAA | 0.0428 |
| AAGTTATC | -0.0807 |
| CTCGAGAG | -0.145 |
| GGATAACC | -0.222 |
| CCTACTCA | -0.0428 |
| CGTTTCCC | -0.109 |
| AATGTACC | -0.118 |
| TGAACTAA | 0.118 |
| CATCCTGA | 0.0864 |

| Sequence | PBM E-score |
| --- | --- |
| CCATGGTA | -0.117 |
| ACGGTGAG | 0.0989 |
| GAGATCGC | -0.0892 |
| AGAAACGA | 0.0281 |
| ATGCCCCG | 0.0467 |
| ACATCCCC | -0.136 |
| ACACGTTG | -0.0454 |
| TACCGCAA | 0.117 |
| CCTCTGAG | -0.176 |
| CCCCCAAA | -0.296 |
| ACCCGTTC | 0.0622 |
| CCTGAGAG | -0.283 |
| AAGCCACC | -0.249 |
| CGAGCTAG | -0.0273 |
| ATGACAAA | -0.00771 |
| AATTGGCT | 0.129 |
| ACTAAACT | 0.134 |
| CGTTTAAC | 0.0581 |
| GTGTCATA | 0.0704 |
| CGAAGGCG | 0.128 |
